Measurements taken from paper PMC7819943, “Rice protein-binding microarrays: a tool to detect cis-acting elements near promoter regions in rice”.
This is one part of the list.

molecular target: T1, OsWOX13 (Oryza sativa, UniProt Q5QMM3 1-267); test: protein-binding microarray (RPBM); PBS, 2% BSA, 51.3 ng/ul salmon testes DNA, 50 uM zinc acetate, 200 nM TF, 25 C, 1 h; high values mean tight binding; conditions: protein: recombinant; tags: N-terminal polyhistidine and DsRed monomer fusion (pET32a); label: CyDye5-dUTP incorporated in the synthesized complementary strand; 3' TTTTT single-stranded linker to array surface; dsDNA, one strand shown
T1 sequence: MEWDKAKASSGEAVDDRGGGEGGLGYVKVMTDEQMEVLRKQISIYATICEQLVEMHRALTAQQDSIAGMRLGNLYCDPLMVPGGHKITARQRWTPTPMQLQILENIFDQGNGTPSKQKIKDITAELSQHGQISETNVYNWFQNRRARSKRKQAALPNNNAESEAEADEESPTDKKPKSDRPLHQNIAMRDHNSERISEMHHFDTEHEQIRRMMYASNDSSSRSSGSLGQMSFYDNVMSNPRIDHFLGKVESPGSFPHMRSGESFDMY
Summary of the method: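 The binding signal is fluorescence intensity per array feature (arbitrary units). Readings came from an Axon 4000B scanner after a washed, 2% BSA-blocked, double-stranded custom Agilent array had been incubated for 1 h at 25 °C with 200 nM protein and 50 µM zinc acetate. The protein was a Ni–NTA-purified transcription factor fused N-terminally to polyhistidine and DsRed, expressed in E. coli BL21-CodonPlus.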

| Sequence | binding signal |
| --- | --- |
| GCTTCAAATTAGCTTTTGACTTAATAGTACAAAAGTGGCTCGGAGTCACCTAGTGCAG | 10500 fluorescence intensity (a.u.) |
| ATATGATTGGCGAGCTATATCTTCTCTTATTGTTTGTGTCCGGAGTCACCTAGTGCAG | 51900 fluorescence intensity (a.u.) |
| ACTAGTTTCAATTATTAAATTGATGGCTCTTGCACTGTCACGGAGTCACCTAGTGCAG | 21900 fluorescence intensity (a.u.) |
| ATTTGATAGAATACGTGAACTGAATTGAGTGGAGCATGTCCGGAGTCACCTAGTGCAG | 20900 fluorescence intensity (a.u.) |
| TTAATTAGACTGACATGTGGGGTCCGCGTGGGTCCCACCACGGAGTCACCTAGTGCAG | 20200 fluorescence intensity (a.u.) |
| GATAATATTTAATTTTGTTGACATATTTTACCAGAAAGAACGGAGTCACCTAGTGCAG | 7680 fluorescence intensity (a.u.) |
| CCGTGCTTCCACTAACTAATTAATTAATTTTGAACCTCTACGGAGTCACCTAGTGCAG | 10600 fluorescence intensity (a.u.) |
| TTAATTAATTAATTAATTAATCAATTAGTATGTATAGTGACGGAGTCACCTAGTGCAG | 45500 fluorescence intensity (a.u.) |
| AAAACTAATTACACAGATTGTGTGTAAATTGCGAAACATTCGGAGTCACCTAGTGCAG | 22000 fluorescence intensity (a.u.) |
| AAGCATTGATTAGTCAACCTTTTCCAAAGAAAAGCAACATCGGAGTCACCTAGTGCAG | 15600 fluorescence intensity (a.u.) |
| AAGGAGAGGATTGAGGAGATTGAGAAGATACGCAAAACGACGGAGTCACCTAGTGCAG | 5770 fluorescence intensity (a.u.) |
| ATGGCTGGGTTGATTGATATGGAGTACAAACTAAGTGTAGCGGAGTCACCTAGTGCAG | 25000 fluorescence intensity (a.u.) |
| ACTCAGTATACACTAATTAGCAATTATTACCGAAATTGTACGGAGTCACCTAGTGCAG | 23400 fluorescence intensity (a.u.) |
| AGATTTAATTGCAACGAATTTAATGGTGCAATCGGATCATCGGAGTCACCTAGTGCAG | 24500 fluorescence intensity (a.u.) |
| TGTACATATTAACAGATAGTCTGTGTCCTATACTGAAATGCGGAGTCACCTAGTGCAG | 3490 fluorescence intensity (a.u.) |
| TTTGTATTTCTGTCATGATTATGATGGTAGTAAATATGTACGGAGTCACCTAGTGCAG | 4510 fluorescence intensity (a.u.) |
| CATAATTTCTTCTGCTCTTTATCTGAAACCTTCACTTGTGCGGAGTCACCTAGTGCAG | 13700 fluorescence intensity (a.u.) |
| AAATGACTGAATTCTGCCTAGTTAATATATAGAATTAAGCCGGAGTCACCTAGTGCAG | 4470 fluorescence intensity (a.u.) |
| CCTCTAATTTCATACTAATCCACTAATGAAATATCTGACCCGGAGTCACCTAGTGCAG | 15900 fluorescence intensity (a.u.) |
| CCAAAGCACCAATCATCTAGCTACTTCTATGCTTTCTTCACGGAGTCACCTAGTGCAG | 5800 fluorescence intensity (a.u.) |
| ACCATGATTTGACAATATGGTGCTACAGTAAACATTTGCTCGGAGTCACCTAGTGCAG | 40800 fluorescence intensity (a.u.) |

| Sequence | binding signal |
| --- | --- |
| TTGATGAGCAAAATTTGTTTGGTTTTATTTTACATGCAGCCGGAGTCACCTAGTGCAG | 12400 fluorescence intensity (a.u.) |
| TATCAAATTTGAATTCAAACCTAAACTCCAATTCTCTCCACGGAGTCACCTAGTGCAG | 5380 fluorescence intensity (a.u.) |
| CAAATTAACAGAAAAGAAAATGATCTACATTCCCCTCATCCGGAGTCACCTAGTGCAG | 19800 fluorescence intensity (a.u.) |
| CTGACGGATAGTATGATTATCATGTTCGTTTCTGTTTCAACGGAGTCACCTAGTGCAG | 10200 fluorescence intensity (a.u.) |
| ATCTAAAATTATTAAAATTAAATTGAAGAGTAGGGTAGCACGGAGTCACCTAGTGCAG | 23000 fluorescence intensity (a.u.) |
| CCCGGACGGGATCTGTAATTATATGCAATGCTATCAGACGCGGAGTCACCTAGTGCAG | 4470 fluorescence intensity (a.u.) |
| TGCAAATCCAATCCAATCCAATCCCACCCCAAGCTCGCGGCGGAGTCACCTAGTGCAG | 4070 fluorescence intensity (a.u.) |
| AGTGTTAATTAGGCCCTTCACAGTGCAACCCGGTGGACCGCGGAGTCACCTAGTGCAG | 14500 fluorescence intensity (a.u.) |
| GGGATGTGTCAATTTAGGACCAAAATAATACACTTTGACACGGAGTCACCTAGTGCAG | 12000 fluorescence intensity (a.u.) |
| GTAAGTCGTGTTAATTAAGCCTCCTAATCCATCACTGACACGGAGTCACCTAGTGCAG | 6180 fluorescence intensity (a.u.) |
| GGATTCAATTATAAAAGCATCTCTCCATCAGCAAGCAAGGCGGAGTCACCTAGTGCAG | 3350 fluorescence intensity (a.u.) |
| TGTTAATAATCATCTGGTAATTGATTGCTCTAAAGATAGACGGAGTCACCTAGTGCAG | 31700 fluorescence intensity (a.u.) |
| CTGCATGATTAGTTAGGCATAAGCATGTGACGAGGATCCTCGGAGTCACCTAGTGCAG | 12400 fluorescence intensity (a.u.) |
| ATTTTCTGTTAAACTTTTGATTGGATCCATCTTTGTAATCCGGAGTCACCTAGTGCAG | 40400 fluorescence intensity (a.u.) |
| GATAATTGTGGTGGAGAGAAAGAGGGCAATCTGGTCCAGACGGAGTCACCTAGTGCAG | 16500 fluorescence intensity (a.u.) |
| ATCTAACTAATTTGTTGGGTCCACCACATTGTTATAAATACGGAGTCACCTAGTGCAG | 16100 fluorescence intensity (a.u.) |
| GTGAGTGATGAATTCATCACTTGTAGACAGTTACATACCACGGAGTCACCTAGTGCAG | 4020 fluorescence intensity (a.u.) |
| ATAACAGAGCTAGTACTTAATTGGAGGTTTGGAACACAACCGGAGTCACCTAGTGCAG | 3980 fluorescence intensity (a.u.) |
| TTAAATGATAGAAATACAATTATTACGGAATAGAATGTAGCGGAGTCACCTAGTGCAG | 29100 fluorescence intensity (a.u.) |
| GGTTAAATTTCTCTTATTTATTAGGGTGCCACTTGACGGTCGGAGTCACCTAGTGCAG | 10400 fluorescence intensity (a.u.) |
| CATGTTTTACGTAAATTGATCAATATTGTGTAGCATCATACGGAGTCACCTAGTGCAG | 7110 fluorescence intensity (a.u.) |
